Test results taken from PubChem BioAssay AID588342 (National Center for Advancing Translational Sciences (NCATS), 2011).
Out of some 360,000 compounds screened, about 25,000 (6.9%) were called active. Inconclusive means that the source gave no clear call. Such entries were picked first, then a sample of the others. The call rests on the fitted dose curve; in most records, active means well fitted inhibition curve with a large enough effect; inconclusive means small, poorly fitted or top-dose-only effect; inactive means flat fitted curve, though single readings scatter. Where the call is inconclusive, the potency comes from a doubtful curve fit.

Biological target: Luciferin 4-monooxygenase (Photinus pyralis) (UniProt P08659)
Assay: qHTS profiling assay for firefly luciferase inhibitor/activator using purifed enzyme and Km concentrations of substrates (counterscreen for miR-21 project); further: nearly all actives have a fitted effect of over 55% in size;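 on activity change, negative = inhibition: plate controls were vehicle for no effect and reference inhibitor for full effect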
Conditions: purified FLuc, luminescence inhibition; series mostly up to 57.5 µM; activity change, negative = inhibition: at the top concentration
How it was run: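 Purified P. pyralis luciferase (10nM final) with 10uM D-luciferin and 10uM ATP (Km levels) in 50mM Tris acetate pH 7.5, 10mM Mg acetate, 0.01% Tween-20, 0.05% BSA; qHTS 6-point titration, ~60 µM downward; luminescence read.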
Potency means the concentration at half of the fitted maximal effect; tags describe the fitted curve by direction and shape.

Chain of UniProt P08659 (P08659 whole entry, looked up): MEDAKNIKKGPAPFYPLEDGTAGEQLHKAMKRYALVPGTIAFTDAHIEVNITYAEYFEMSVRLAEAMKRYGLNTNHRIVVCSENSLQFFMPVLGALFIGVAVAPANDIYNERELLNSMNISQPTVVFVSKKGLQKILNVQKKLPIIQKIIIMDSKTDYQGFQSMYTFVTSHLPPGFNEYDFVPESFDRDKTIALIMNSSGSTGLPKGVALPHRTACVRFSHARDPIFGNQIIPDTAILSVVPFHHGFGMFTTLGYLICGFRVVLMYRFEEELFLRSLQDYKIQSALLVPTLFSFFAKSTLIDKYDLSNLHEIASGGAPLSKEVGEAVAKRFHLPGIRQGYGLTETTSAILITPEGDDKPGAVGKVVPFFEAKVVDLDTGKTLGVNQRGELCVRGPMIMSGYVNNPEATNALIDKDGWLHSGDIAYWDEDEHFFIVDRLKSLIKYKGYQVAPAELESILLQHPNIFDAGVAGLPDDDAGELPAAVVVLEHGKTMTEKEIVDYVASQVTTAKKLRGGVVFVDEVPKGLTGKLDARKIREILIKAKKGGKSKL

Compound | Potency | activity change, negative = inhibition
C/C(=N\Nc1ccc(F)cc1F)c1ccc(F)cc1 | inconclusive: 19 µM [inhibitor, partial curve] | 
CC(C)[C@H](NC(=O)c1ccco1)C(=O)OCC(=O)N1CCc2ccccc21 | inconclusive: 23.9 µM [inhibitor, single point] | 
COc1cc(OC)c(OC)cc1/C=C1\Oc2cc(OCC(=O)N3Cc4ccccc4C[C@H]3C(=O)O)ccc2C1=O | inconclusive: 16.9 µM [inhibitor, partial curve] | 
O=C(CSc1nc2cc(Cl)ccc2o1)Nc1ccc(N2CCOCC2)cc1 | inconclusive: 26.9 µM [inhibitor, partial curve, poor fit] | 
Cc1nc2nc(C(F)(F)F)[nH]n2c(=O)c1Cc1ccccc1 | inconclusive: 23.9 µM [inhibitor, partial curve, poor fit] | 
c1ccc(CSc2nnc(-c3ccncc3)o2)cc1 | inconclusive: 26.9 µM [inhibitor, partial curve, poor fit] | 
Cc1cc(C(=O)NC2CCC(C)CC2)c(C)o1 (centres undefined) | active: 9.53 µM | 
O=C(CSc1nnc(CNC(=O)c2cccs2)o1)Nc1ccc(Br)cc1 |  | inactive: -6.68%
CC1(C(=O)N2CC3(CC(c4cccc(NC(=O)CC(c5ccccc5)c5ccccc5)c4)=NO3)C[C@@H]2C(N)=O)CC1 (some centres undefined) |  | inactive: 5.01%
N#Cc1ccc(-c2cn3c(n2)SCC3)cc1 | active: 19 µM | 
Cc1ccc(-n2ncc3c(SCc4cccc(C)c4)ncnc32)cc1 | inconclusive: 15.1 µM [inhibitor, partial curve] | 
CCCS/C(N)=N/N=C/c1cc(C)ccc1O | active: 2.39 µM | 
CC(=O)Nc1cc(Cl)c(N=Cc2ccc(O)cc2O)cc1Cl |  | inactive: 4.94%
COc1ccc(Nc2ncnc3c2nc2n3CCCC2)cc1Cl | active: 19 µM | 
Cc1ccc(N=c2sc(C)c(C)n2C)cc1 | active: 21.3 µM | 
CCOC(=O)c1ccc(/C=C2/C=C(c3ccccc3)N(c3ccc(Cl)c(C(=O)O)c3)C2=O)cc1 | inconclusive: 30.1 µM [inhibitor, partial curve, poor fit] | 
Cc1ccc(C(=O)Oc2cccc(-n3cnnn3)c2)cc1 | inconclusive: 19 µM [inhibitor, partial curve, poor fit] | 
N#CC(=C1SC=CS1)c1nc(-c2ccccc2)cs1 | active: 7.57 µM | 
O=[N+]([O-])c1ccc2nc(-c3ccccc3)cc(-c3ccccc3)c2c1 |  | inactive: 1.43%
CCN1C(=O)c2ccc(C(=O)Nc3ncc(C)s3)cc2C1=O | active: 1.69 µM | 
CCOc1cccc2cc(-c3csc(NC(=O)CCC(=O)NCCCN4CCC(C)CC4)n3)c(=O)oc12 | active: 16.9 µM | 
Cc1nc(SCCOc2ccc(F)cc2)c2ccccc2n1 | inconclusive: 37.9 µM [inhibitor, partial curve, poor fit] | 
Cc1cccc(/C=C(\C(=O)C(=O)O)c2ccc3ccccc3n2)c1 | inconclusive: 13.5 µM [inhibitor, partial curve, poor fit] | 
O=c1oc2c(CN3CCOCC3)c(O)ccc2c2ccccc12 | inconclusive: 30.1 µM [inhibitor, partial curve] | 
COCCOc1ccc(C(F)(F)F)cc1NC(=O)CN1C(=O)NC2(CCc3ccccc32)C1=O (centres undefined) |  | inactive: 0.748%

Compound | Potency | activity change, negative = inhibition
Cc1nn2c(-c3ccncc3)ccnc2c1Cl |  | inactive: -1.77%
O=C(Nc1ccc(-n2cccc2)cc1)C1CC1 | inconclusive: 26.9 µM [inhibitor, partial curve, poor fit] | 
Cc1ccccc1CSc1nc2ccccc2c(=O)n1C | inconclusive: 19 µM [inhibitor, partial curve, poor fit] | 
CN(c1cccc(NC(=O)CN(c2cccc(Cl)c2)S(=O)(=O)c2ccccc2)c1)S(C)(=O)=O |  | inactive: 2.45%
O=C(NCc1ccco1)Oc1ccccc1 | inconclusive: 33.8 µM [inhibitor, partial curve, poor fit] | 
COc1ccc(C(CNC(=O)c2oc3ccc(OC)cc3c2C)N2CCCC2)cc1 (centres undefined) |  | inactive: -7.72%
Nc1ccccc1-c1nc2ccccc2[nH]1 | active: 12 µM | 
C=CCNC(=O)C1CCN(S(=O)(=O)c2cccs2)CC1 |  | inactive: 5.57%
O=C(NC1CCCc2ccccc21)c1ccccc1Br (centres undefined) |  | inactive: -0.191%
O=C(O)c1c2c(nc3ccc(S(=O)(=O)N4CCC(C(=O)NCc5ccc(Cl)cc5)CC4)cc13)CCCC2 | inconclusive: 19 µM [inhibitor, partial curve, poor fit] | 
COc1ccc(-c2cc(C(=O)O)c3ccccc3n2)c(OC)c1 | inconclusive: 23.9 µM [inhibitor, partial curve, poor fit] | 
O=C(Nc1nc2ccccc2[nH]1)c1ccccc1F | active: 0.19 µM | 
CCCn1c(SCC(=O)Nc2nnc(C(C)C)s2)nc2c1c(=O)n(C)c(=O)n2C |  | inactive: 4.15%
Cc1ccccc1Cn1ccc(NC(=O)c2nn3cccnc3c2Cl)n1 | active: 16.9 µM | 
COC(=O)[C@H](Cc1ccccc1)NC(=O)Nc1ccc(OC)cc1 |  | inactive: -2.85%
O=C(COc1cccc(NC(=O)c2cccc([N+](=O)[O-])c2)c1)c1ccc(Br)cc1 | inconclusive: 13.5 µM [inhibitor, partial curve, poor fit] | 
Cc1csc(NC(=O)c2ccc(S(=O)(=O)N(C)c3ccccc3)cc2)n1 | inconclusive: 21.3 µM [inhibitor, partial curve, poor fit] | 
COc1ccc(S(=O)(=O)NCC(c2ccco2)N2CCN(c3ccccc3F)CC2)cc1C (centres undefined) |  | inactive: 3.74%
CCOc1ccc(C2C(C(N)=O)=C(C)Nc3nc(-c4cccc(Cl)c4)nn32)cc1OC (centres undefined) |  | inactive: -17.8%
CCOc1cc(C(F)(F)F)cnc1/C(N)=N/O |  | inactive: -1.59%
CCc1[nH]nc2c1C(c1cccc(OC(=O)N3CCOCC3)c1)C(C#N)=C(N)O2 (centres undefined) |  | inactive: -0.849%
CCNC(=O)CSc1nnc(-c2cc(-c3ccc(Cl)cc3)nc3ccccc23)o1 | inconclusive: 19 µM [inhibitor, partial curve, poor fit] | 
O=C(O/N=C(\c1ccccc1)c1ccccn1)c1cccc2ccccc12 | inconclusive: 26.9 µM [inhibitor, partial curve, poor fit] | 
O=C(CCN1C(=O)S/C(=C\C=C\c2ccccc2)C1=O)Nc1ccc(O)cc1 | inconclusive: 2.39 µM [inhibitor, full curve] | 
C=CCn1c(=O)c(C(=O)NCc2ccccc2Cl)c(O)c2ccccc21 |  | inactive: 3.11%

Compound | Potency | activity change, negative = inhibition
CCOC(=O)c1cnc2c(C(=O)OCC)cnn2c1N | inconclusive: 23.9 µM [inhibitor, partial curve] | 
CC(C)Oc1ccc(C(=O)NC2CCCCC2)cc1 | active: 10.7 µM | 
Cc1ccc(-c2nc3c(c(=O)[nH]c(=O)n3Cc3ccccc3)n2C)o1 | inconclusive: 10.7 µM [inhibitor, partial curve, poor fit] | 
CCOc1ccc(-n2nnnc2SCC(=O)c2ccccc2)cc1 | inconclusive: 30.1 µM [inhibitor, single point] | 
Cc1c(C(=O)OC2CCCCC2)sc2nc[nH]c(=O)c12 | inconclusive: 21.3 µM [inhibitor, partial curve, poor fit] | 
CC(C)(C)C(=O)N1CCN(c2nc3ccccc3s2)CC1 | active: 15.1 µM | 
O=S(=O)(Nc1cccc(-c2ccc(N3CCCC3)nn2)c1)c1cc(F)ccc1F | active: 6.01 µM | 
CCN(CC)CCN(Cc1cc2cc3c(cc2[nH]c1=O)OCCO3)C(=S)NCC1CCCO1 (centres undefined) | inconclusive: 26.9 µM [inhibitor, partial curve, poor fit] | 
CCOC(=O)c1c(NC(=O)c2ccc(N3C(=O)[C@@H]4[C@H](C3=O)[C@H]3C=C[C@@H]4C3)cc2)sc2c1CCCC2 |  | inactive: 6.03%
COc1cccc(/C=N/NC(=O)c2nnn(-c3nonc3N)c2C(C)C)c1 | inconclusive: 19 µM [inhibitor, partial curve] | 
CN(C)C(/C=C/Nc1cccc([N+](=O)[O-])c1)=C(C#N)C#N |  | inactive: -1.57%
O=C(Nc1nnc(C2=COCCO2)o1)c1ccc(S(=O)(=O)N2CCCCC2)cc1 | inconclusive: 37.9 µM [inhibitor, partial curve, poor fit] | 
CCOc1ccc(CN(CC)C(=O)Cc2c[nH]c3ccccc23)cc1OC |  | inactive: -1.41%
Oc1ccc(CNc2ccccc2O)cc1 | inconclusive: 23.9 µM [inhibitor, single point] | 
CCc1ccc(CNC(=O)C2CCN(C(=O)c3ccc(-n4ccc5ccccc54)s3)CC2)cc1 |  | inactive: -12.1%
Cc1ccccc1CS(=O)(=O)c1ncc(Cl)c(C(=O)Nc2nnc(C(C)C)s2)n1 | inconclusive: 12 µM [inhibitor, partial curve] | 
Cc1c(C(=O)O)sc2nc(/C=C/c3ccccc3OC(F)F)[nH]c(=O)c12 | inconclusive: 19 µM [inhibitor, single point] | 
N#C/C(=C\c1c(Oc2ccc(F)cc2)nc2ccccn2c1=O)c1nc2ccccc2s1 |  | inactive: -16.7%
c1ccc(CSc2ccc(-c3cccnc3)nn2)cc1 | active: 21.3 µM | 
COc1ccc(OC)c(S(=O)(=O)N2CCCC(C(=O)N3CCCC3)C2)c1 (centres undefined) |  | inactive: -1.97%
Nc1nc(Nc2ccccc2Br)nc(C(F)(F)F)n1 | inconclusive: 23.9 µM [inhibitor, partial curve, poor fit] | 
COC(=O)c1cc(C(C)=O)n2ccccc12 |  | inactive: 10.7%
CCCc1cc(=O)oc2c3c(cc(OCC(=O)NCCCn4ccnc4)c12)OC(C)(C)CC3 | inconclusive: 37.9 µM [inhibitor, partial curve, poor fit] | 
N#Cc1ccccc1OCC(=O)NC(=O)NC1CCS(=O)(=O)C1 (centres undefined) | inconclusive: 15.1 µM [inhibitor, partial curve] | 
